Assay results reported in PubChem BioAssay AID1159614 (National Center for Advancing Translational Sciences (NCATS), 2016).
The whole screen tested about 45,000 compounds, of which about 65 (0.1%) were called active. Calls follow the shape of the dose curve; as a rule, active = well fitted activation curve with a large enough effect; inconclusive = small, poorly fitted or top-dose-only effect; inactive = no such curve, though single readings can be large or run the other way. This is one part of the list.

target: Galactocerebrosidase (Homo sapiens) (UniProt P54803); assay: A Novel Cell-Based Assay to Identify Small Molecules for B -Galactocerebrosidase; settings: 145M-Twi-hGALC-G270D cells (Twitcher mouse brain line with human GALC G270D), HMU-beta-Gal fluorescence, 48 h; series mostly up to 57.5 µM; activation: at the top concentration; also: 0% is about no effect; nearly all actives have a fitted effect of over 65% in size
Chain of UniProt P54803 (P54803 whole entry, looked up): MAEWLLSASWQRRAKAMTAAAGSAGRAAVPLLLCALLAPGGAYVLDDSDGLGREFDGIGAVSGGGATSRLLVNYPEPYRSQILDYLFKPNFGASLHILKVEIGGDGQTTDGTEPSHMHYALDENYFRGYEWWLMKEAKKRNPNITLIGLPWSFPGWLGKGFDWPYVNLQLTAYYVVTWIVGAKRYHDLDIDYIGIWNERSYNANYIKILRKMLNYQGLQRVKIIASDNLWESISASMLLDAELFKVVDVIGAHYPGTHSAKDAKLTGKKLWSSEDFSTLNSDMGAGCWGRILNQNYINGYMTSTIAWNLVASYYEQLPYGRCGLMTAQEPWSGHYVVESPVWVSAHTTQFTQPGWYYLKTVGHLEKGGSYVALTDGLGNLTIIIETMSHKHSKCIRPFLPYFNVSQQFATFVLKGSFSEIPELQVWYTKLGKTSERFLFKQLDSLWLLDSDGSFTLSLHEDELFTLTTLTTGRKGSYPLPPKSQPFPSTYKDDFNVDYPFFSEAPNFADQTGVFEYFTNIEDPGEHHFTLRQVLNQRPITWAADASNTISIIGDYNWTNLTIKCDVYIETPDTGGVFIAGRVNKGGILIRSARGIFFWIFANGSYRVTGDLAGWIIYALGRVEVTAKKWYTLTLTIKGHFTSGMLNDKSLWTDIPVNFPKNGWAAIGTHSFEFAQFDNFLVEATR
How it was run: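 Brain-derived Twitcher mouse 145M-Twi cells stably expressing human GALC-G270D or wild-type GALC, treated live, then residual GALC activity read by fluorescence of HMU-b-Gal substrate (0.1 mM final) in citrate-phosphate buffer pH 5.2 with sodium taurocholate. Signal increase indicates enhancement.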

activation, inactive:
Cc1nc2n(c(=O)c1CCN1CCC(c3noc4cc(F)ccc34)CC1)CCC[C@H]2O -5.98% [at 23.8 µM]
CCOc1ccccc1NC(=O)CSc1ncc(S(=O)(=O)c2ccc(C)c(C)c2)c(N)n1 0.691%
CCSc1nnc2c(n1)OC(c1ccc(C)s1)Nc1ccccc1-2 (configuration not stated) 6.37%
O=C(CSc1nnc(-c2ccccc2F)o1)Nc1ccccc1Cl -15.4%
COc1ccc(CCNC(=O)Cn2cc(S(=O)(=O)Cc3ccccc3Cl)c3ccccc32)cc1OC -1.46%
CCOc1ccc(NC(=O)Cn2nnc(C(=O)NCCc3ccccc3)c2N)cc1 -15.9%
COc1ccc(-c2cc(OC(=O)c3cccc(Cl)c3)c3c(C)oc(C)c3c(=O)c2)cc1 -13.4%
COc1cc(NC(=O)N2CCC3(CC2)Nc2ccccc2-n2cccc23)cc(OC)c1OC -39.6%
CCc1nn(CC(=O)Nc2c(C)cccc2C)c(=O)c2cc3sccc3n12 -20.1%
O=C(CSc1nc2c([nH]c3ccccc32)c(=O)n1-c1ccccc1)Nc1ccc(Cl)c(Cl)c1 -9.63%
COc1ccc(-c2noc(-c3ccc(NCC4CCCO4)c([N+](=O)[O-])c3)n2)cc1 (configuration not stated) -4.14%
CNC(=O)c1c(NC(=O)Cc2coc3ccc(C)cc23)sc2c1CCCC2 -15.5%
O=C(NCCc1ccc(Cl)cc1)C1COc2ccccc2C1 (configuration not stated) -12.5%
Cc1nc(-c2ccc(S(=O)(=O)N3CCN(c4cc(Cl)ccc4C)CC3)cc2)co1 -18.9%
O=C(c1ccc(F)cc1)n1nc(-c2cccnc2)nc1NCc1ccc(F)cc1 -8.18%
Cc1cn2c(=O)c(S(=O)(=O)N3CCN(c4cc(Cl)ccc4C)CC3)c(C)nc2s1 -5.55%
COc1ccccc1NC(=O)CSc1oc(-c2ccccc2)nc1S(=O)(=O)c1ccc(C)cc1 -2.42%
CCOC(=O)c1noc2ncn(CC(=O)Nc3cccc(Cl)c3)c(=O)c12 -13.1%
O=C(CSc1c2c(nc3cc(Cl)ccc13)CCCC2)N1CCN(c2ccccc2F)CC1 -9.52%
O=C(COc1ccc2ccccc2c1)NC1CC(=O)N(c2ccccc2)C1 (configuration not stated) 8.67%
Cc1ccc2nc(-c3cccnc3)c(Nc3ccc(C(C)C)cc3)n2c1 -26.3%
N#Cc1ccccc1NC(=O)C(=O)NCCc1csc(-c2ccc(F)cc2)n1 -20.1%
Cc1ccc(S(=O)(=O)c2nc(-c3cccs3)oc2SC(C)C)cc1 -12.3%
COc1ccc2c(Sc3ccc(Cl)cc3)c(C(=O)N3CCC(C)CC3)[nH]c2c1 -47.1%
O=C(Cn1c(=O)oc2cc(S(=O)(=O)N3CCCC3)ccc21)Nc1ccc(F)cc1F -14.6%
CCNC(=O)CC1C(=O)N(c2ccc(C)cc2)C(=O)N1CCC(C)C (configuration not stated) -20%
O=C(Nc1cccc(-c2nc3cccnc3s2)c1)c1cccc(Br)c1 -16.8%
CCOC(=O)c1ccc(NC(=O)c2cn(-c3ccccc3)nc2-c2ccc(OC)c(OC)c2)cc1 -3.96%
CCOC(=O)c1nc(Nc2ccc(C(=O)OC)cc2)c2ccccc2n1 3.04%
CCOC(=O)c1c(C)oc2nc(C)nc(NCc3cccc(Cl)c3)c12 -17%
CCCCOc1cccc(NC(=O)c2cccc(C(=O)Nc3cccc(OCCCC)c3)c2)c1 -16.4%
O=C(c1cccc(Cl)c1)n1nc(-c2cccnc2)nc1NCc1ccccc1 -29.4%
Cc1ccc(C(=O)Nc2nc(-c3nnn(-c4cccc(C(F)(F)F)c4)c3C)ns2)cc1 -19.6%
COc1cc(OC)cc(C(=O)Nc2nnc3n2CCS3)c1 -9.24%
COc1cccc(C(=O)NCC(=O)OCc2cc(=O)n3ccsc3n2)c1 4.25%
CSCCC(NS(=O)(=O)c1ccc2c(c1)oc(=O)n2C)C(=O)N1CCN(c2ccc(C(C)=O)cc2)CC1 (configuration not stated) -2.5%
CCc1ccc(-n2c(=O)c3cccnc3n2CC(=O)Nc2cc(OC)ccc2OC)cc1 -20.2%
CCc1ccccc1NC(=O)c1ccc(=O)n(Cc2ccc(F)cc2)c1 -9.02%
COc1cc(OC)cc(-c2nc3nc(C)c(CCC(=O)NCCC(C)C)c(C)n3n2)c1 10.4%
CCOC(=O)c1c(S(=O)(=O)NCC(=O)Nc2ccc(F)cc2C)c(C)n(C)c1C -7.9%
COc1ccccc1NC(=O)CN1C(=O)CSc2ccc(S(=O)(=O)N3CCCC3)cc21 -22.1%
O=c1c(S(=O)(=O)c2cccc(Cl)c2)cn(Cc2ccccc2)c2cc(N3CCCCC3)c(F)cc12 -13.6%
CCN(CC)S(=O)(=O)c1ccc2[nH]cc(C(=O)NCCc3ccccc3)c(=O)c2c1 -6.49%
CC(C)CC(=O)Nc1nnc(SCc2cc(=O)n3ccccc3n2)s1 -4.87%
Cc1cc(C)c(NC(=O)CCCn2c(C)c3cnn(-c4ccccc4)c(=O)c3c2C)c(C)c1 -11.1%
Cc1ccc(CCNC(=O)c2cn(C)c3ccc(S(=O)(=O)N4CCC(C)CC4)cc3c2=O)cc1 -11.5%
COc1cccc(-n2cc(C(=O)OCc3ccc(Cl)cc3)c3ccccc3c2=O)c1 -4.96%
O=C(NCc1ccccc1Cl)c1ccc(Cn2c(=O)c3cccn3c3cccnc32)cc1 6.86%
CCOc1ccc(-n2c(=O)c3c(C)c(C)sc3n(CC(=O)N3CCC(C)CC3)c2=O)cc1 -6.26%
Cc1cccc(CNC(=O)c2ccc(C)c(-n3c(C)nc4cccnc43)c2)c1 -3.7%
CC(=O)C1=C(c2ccc(Br)cc2)N(C(C)=O)n2c(nnc2C2CCCCC2)S1 -13.1%
CCn1ccc2cc(S(=O)(=O)N3CCC(C(=O)NCCc4ccccc4)CC3)ccc21 -7.29%
COc1cc(OC)c(NC(=O)c2c(C)oc3nc(C)nc(N4CCOCC4)c23)cc1Cl -10.6%
CC(=O)Nc1ccccc1-c1nc2ccccc2n(CC(=O)c2ccc(Br)cc2)c1=O -19.7%
CCOC(=O)c1cccc(NC(=O)c2cc(S(=O)(=O)N3CCCC(C)C3)cn2C)c1 (configuration not stated) -5.92%
CC1=C(C(N)=O)C(c2ccc(C)cc2)n2nc(SCc3ccccc3F)nc2N1 (configuration not stated) -7.35%
COC(=O)CNC(c1ccccc1)c1cc(Br)ccc1NC(=O)c1ccccc1 (configuration not stated) -5.16%
COc1cccc(-n2cc(C(=O)Nc3cc(OC)c(OC)c(OC)c3)c3ccccc3c2=O)c1 -10.7%
CCOC(=O)C1CCCN(C(=O)Cn2ncc3c(C)n(Cc4ccccc4F)c(C)c3c2=O)C1 (configuration not stated) -9.96%
COc1cccc(CNC(=O)CSc2nnc(C)c3c(C)n(-c4ccccc4)nc23)c1OC -18.9%
Cc1onc(-c2c(F)cccc2Cl)c1C(=O)Nc1ccc(OC(C)C)cc1 -9.06%
N#CSCC(=O)O -16.1%
Cc1ccc2oc(=O)c3cc(C(=O)Nc4ccccc4C(N)=O)sc3c2c1 -2.17%
COc1ccc(-c2cc(C(F)(F)F)nc(SCC(=O)N3CCCCC3C)n2)cc1OC (configuration not stated) -13.2%
CCc1cccc(C)c1NC(=O)C1CCN(c2nn3c(=O)cc(C)nc3s2)CC1 -13.8%
Cc1ccc(-n2nc3c(N4CCC(C(=O)NC(C)c5ccccc5)CC4)nnc(C)c3c2C)cc1 (configuration not stated) -17.8%
CCOc1ccc(Nc2cc(C)nc3nc(Cc4ccc(Cl)cc4)nn23)cc1 -4.14%
O=C(CCCl)NCCc1ccccc1 -10.6%
COc1ccccc1N1CCN(C(=O)c2c(C)oc3ncn(CC(C)C)c(=O)c23)CC1 -6.88%
O=C(Cn1ccc2ccccc2c1=O)NCCC(=O)Nc1ccc(F)cc1F -14.4%
Cc1cccc(NC(=O)Nc2ccc(Br)cc2)n1 -30.7%
COc1ccc(CCNC(=O)c2cc3c(s2)-c2ccccc2OC3)cc1OC -14.1%
O=C1CCCc2cc(S(=O)(=O)NCC3CCC(C(=O)NCc4ccccc4Cl)CC3)ccc2N1 (configuration not stated) -7.41%
CCOCCCn1c(=N)c(C(=O)NCc2cccnc2)cc2c(=O)n3cc(C)ccc3nc21 -13.3%
CCOC(=O)c1cnc2c(ccc3ccccc32)c1Nc1ccc(OCC)cc1 -15.2%
COc1ccc(S(=O)(=O)c2c(O)c3ccc(C(=O)NCc4ccccc4)cc3[nH]c2=O)cc1 -17.9%
COc1ccc(-c2cc(C(=O)Oc3cccc(C)c3)c3cc(C)ccc3n2)cc1 -7.46%
O=C(COc1ccccc1F)OCc1cc(=O)n2nc(C3CC3)sc2n1 2.56%
Cc1oc2ncn(CC(C)C)c(=O)c2c1C(=O)NCCCN1CCC(C)CC1 -7.97%
Cc1cc(C)cc(-n2c(C)nc3cc(C(=O)NCc4ccccc4Cl)ccc32)c1 -24.9%
COc1cccc(C(=O)Nc2ccc(-n3nncc3-c3ccccc3)cc2)c1 -4.88%
Cc1ccc(NC(=O)CN2C(=O)CCc3cc(S(=O)(=O)N4CCCCC4)ccc32)cc1C -2.37%
CCN(CC)Cc1c(NC(=O)c2ccc(OC)cc2)sc2c1CCCC2 2.41%
CC(=O)Nc1ccc(Nc2nc3c(S(=O)(=O)c4cccc(Cl)c4)nnn3c3ccsc23)cc1 -9.6%
Cc1ccc(C)c(-c2nnc(NC(=O)c3ccc4c(c3)OCCO4)o2)c1 -15%
COc1ccc(CCNC(=O)Cn2c(=O)c3cccn3c3ccc(F)cc32)c(OC)c1 -13.8%
CSc1ccc(C2c3c(oc4cc(C)cc(C)c4c3=O)C(=O)N2CCO)cc1 (configuration not stated) -7.04%
Cc1nc2sc(C(=O)N(C)c3ccccc3)c(NC(=O)c3ccccc3Cl)c2c(C)c1C -7.9%
Cc1ccc(CN(C(=O)COc2ccc(Cl)cc2C)C2CCS(=O)(=O)C2)o1 (configuration not stated) -17.1%
CCCn1c(=O)c2c(nc3n2CCN3c2ccc(C)cc2)n(C)c1=O -12.7%
CC[C@@H](C)[C@@H](C(=O)Nc1ccc(C)cc1)N1Cc2ccccc2C1=O -13%
Cc1ccc(OCC(=O)N(Cc2ccco2)Cc2ccco2)cc1C -9.34%
CC(C)CCNC(=O)CCn1c(=O)c2cccn2c2cccnc21 -7.45%
COc1cn(CC(=O)Nc2ccccc2)c(CN2CCCCC2)cc1=O -6.72%
CCOc1ccc(NC(=O)N(Cc2c[nH]c3ccccc23)C2CCCCCC2)cc1 -11.9%
CCN(CC)C(=O)C1CN2CCc3cc(OC)c(OC)cc3C2CC1OC(C)=O (configuration not stated) -13.2%
COc1ccc(C2C(C(=O)Nc3ccccc3OC)=C(C)Nc3c(C(=O)Nc4ccccc4)cnn32)c(OC)c1 (configuration not stated) 2.69%
